Laboratory results as given in paper PMC9144445, “Substrate-Based Design of Cytosolic Nucleotidase IIIB Inhibitors and Structural Insights into Inhibition Mechanism” (Pharmaceuticals, 2022).

Columns and labels:
human cN-IIIB [1] = target: T1, human cN-IIIB (Homo sapiens, UniProt Q969T7); test: Hydrolysis assay: susceptibility to hydrolysis by cN-IIIB (MGP assay); assay type: biochemical; design: expressed as a construct of full-length protein (residues 1–300); His6 (N, cleaved yes); ubiquitin-like Smt protein (SUMO) (N, cleaved yes); made in house; settings: cN-IIIB 80 nM, 45 min; for Susceptibility to hydrolysis (%): MGP assay
T1 sequence (Q969T7 1-300): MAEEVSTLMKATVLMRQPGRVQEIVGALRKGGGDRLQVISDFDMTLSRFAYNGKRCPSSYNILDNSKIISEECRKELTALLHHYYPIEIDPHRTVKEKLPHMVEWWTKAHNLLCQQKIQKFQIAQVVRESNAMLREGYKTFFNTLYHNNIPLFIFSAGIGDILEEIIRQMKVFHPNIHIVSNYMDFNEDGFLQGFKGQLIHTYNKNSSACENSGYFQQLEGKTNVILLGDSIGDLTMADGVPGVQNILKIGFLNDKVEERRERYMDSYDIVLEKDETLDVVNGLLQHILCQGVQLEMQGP

human cN-IIIB [2] = target: T1, human cN-IIIB; test: IC50 determination for cN-IIIB (MGP assay)
human cN-IIIB [3] = target: T1, human cN-IIIB; settings: for Inhibition of cN-IIIB activity, first library (in words): m7GMP 100 μM + inhibitor 100 μM, cN-IIIB 80 nM, 45 min; for Inhibition: relative percentage of inhibition of cN-IIIB, first-library hits (Figure 2A)
[4] = library I, compound 100 μM, relative to m7GMP set to 100%

Susceptibility to hydrolysis (%) (human cN-IIIB [1]; [4]) | IC50 (human cN-IIIB [2]) [µM] | SMILES | also measured
60.0 |  | CO[C@@H]1[C@H](O)[C@@H](COP(=O)([O-])O)O[C@H]1n1c[n+](C)c2c(=O)[nH]c(N)nc21 [Compound S26] | 
 | 14.3 ± 1.8 | Cc1ccc(C[n+]2cn([C@@H]3O[C@H](COP(=O)([O-])O)[C@@H](O)[C@H]3O)c3nc(N)[nH]c(=O)c32)cc1 [Compound 5b] | Susceptibility to hydrolysis (%) (human cN-IIIB [1]; library II, compound 100 µM): 0.0%
0.0 |  | C[n+]1cn([C@@H]2O[C@H](Cn3cc(CP(=O)([O-])O)nn3)[C@@H](O)[C@H]2O)c2nc(N)[nH]c(=O)c21 [Compound S15] | 
122.2 |  | C[n+]1cn([C@@H]2O[C@H](Cn3cc(COP(=O)([O-])O)nn3)[C@@H](O)[C@H]2O)c2nc(N)[nH]c(=O)c21 [Compound S17] | 
 | 27.6 ± 2.6 | Nc1nc2c(c(=O)[nH]1)[n+](Cc1ccc(F)cc1F)cn2[C@@H]1O[C@H](COP(=O)([O-])O)[C@@H](O)[C@H]1O [Compound 5e] | Susceptibility to hydrolysis (%) (human cN-IIIB [1]; library II, compound 100 µM): 0.0%
73.3 |  | C#CCn1c(N)nc2c(ncn2[C@@H]2O[C@H](COP(=O)(O)O)[C@@H](O)[C@H]2O)c1=O [Compound S23] | 
 | 13.9 ± 2 | Cc1cc(C)cc(C[n+]2cn([C@@H]3O[C@H](COP(=O)([O-])O)[C@@H](O)[C@H]3O)c3nc(N)[nH]c(=O)c32)c1 [Compound 5c] | Susceptibility to hydrolysis (%) (human cN-IIIB [1]; library II, compound 100 µM): 0.0%
0.0 |  | Cn1c[n+]([C@@H]2O[C@H](COP(=O)([O-])OP(=O)(O)OP(=O)(O)O)[C@@H](O)[C@H]2O)c2nc(N)[nH]c(=O)c21 [m7GTP, reference compound] | 
0.0 |  | C[n+]1cn([C@@H]2O[C@H](Cn3cc(CCP(=O)([O-])O)nn3)[C@@H](O)[C@H]2O)c2nc(N)[nH]c(=O)c21 [Compound S16] | 
0.0 |  | C#CC[n+]1cn([C@@H]2O[C@H](COP(=O)([O-])O)[C@@H](O)[C@H]2O)c2nc(N)[nH]c(=O)c21 [Compound 7] | Inhibition of cN-IIIB activity, first library (in words) (human cN-IIIB [3]): most potent inhibitory effect; Inhibition (human cN-IIIB [3]): 62.3%; Susceptibility to hydrolysis by cN-IIIB (in words) (human cN-IIIB [1]; compound 100 μM): resistant to hydrolysis
 | 2.3 ± 0.3 | Cc1cccc(C[n+]2cn([C@@H]3O[C@H](COP(=O)([O-])O)[C@@H](O)[C@H]3O)c3nc(N)[nH]c(=O)c32)c1 [Compound 5a] | 
 | 2.5 ± 0.2 | Nc1nc2c(c(=O)[nH]1)[n+](Cc1ccc(F)c(F)c1)cn2C1OC(COP(=O)([O-])O)C(O)C1O (stereo not drawn) [Compound 5d] | 
 | 89 ± 27 | Nc1nc2c(c(=O)[nH]1)[n+](Cc1ccccc1)cn2[C@@H]1O[C@H](Cn2cc(P(=O)([O-])O)nn2)[C@@H](O)[C@H]1O [Compound 8d, 7-Benzylguanosine-Triazol-p] | Susceptibility to hydrolysis (%) (human cN-IIIB [1]; library II, compound 100 µM): 0.0%
0.0 | 52.8 ± 5.7 | Nc1nc2c(c(=O)[nH]1)[n+](Cc1ccccc1)cn2[C@@H]1O[C@H](COP(=O)([O-])OP(=O)(O)O)[C@@H](O)[C@H]1O [Compound 6] | Inhibition of cN-IIIB activity, first library (in words) (human cN-IIIB [3]): most potent inhibitory effect; Inhibition (human cN-IIIB [3]): 42.2%; Susceptibility to hydrolysis by cN-IIIB (in words) (human cN-IIIB [1]; compound 100 μM): resistant to hydrolysis; Susceptibility to hydrolysis (%) (human cN-IIIB [1]; library II, compound 100 µM): 0.0%
0.0 |  | C[n+]1cn([C@@H]2O[C@H](COP(=O)([O-])OP(=O)(O)NCCN=[N+]=[N-])[C@@H](O)[C@H]2O)c2nc(N)[nH]c(=O)c21 [Compound S7] | 
 | 12.3 ± 2.6 | Nc1nc2c(c(=O)[nH]1)[n+](Cc1cc(F)c(F)c(F)c1)cn2[C@@H]1O[C@H](COP(=O)([O-])O)[C@@H](O)[C@H]1O [Compound 5f] | Susceptibility to hydrolysis (%) (human cN-IIIB [1]; library II, compound 100 µM): 0.0%
0.0 |  | C#CCNP(=O)(O)OC[C@H]1O[C@@H](n2c[n+](C)c3c(=O)[nH]c(N)nc32)[C@H](O)[C@@H]1O [Compound S4] | 
 | 144 ± 23 | Cc1cccc(C[n+]2cn([C@@H]3O[C@H](Cn4cc(P(=O)([O-])O)nn4)[C@@H](O)[C@H]3O)c3nc(N)[nH]c(=O)c32)c1 [Compound 8e, 7-(3-Methylbenzyl)guanosine-Triazol-p] | Susceptibility to hydrolysis (%) (human cN-IIIB [1]; library II, compound 100 µM): 0.0%
0.0 |  | C[n+]1cn([C@@H]2O[C@H](COP(N)(=O)[S-])[C@@H](O)[C@H]2O)c2nc(N)[nH]c(=O)c21 (stereo partly drawn) [Compound S13] | 
 | > 500 | C[n+]1cn(Cc2cn(CP(=O)([O-])O)nn2)c2nc(N)[nH]c(=O)c21 [Compound 4b, 7-methylguanosine-9-CH2-Triazol-CH2-p] | Susceptibility to hydrolysis (%) (human cN-IIIB [1]; library II, compound 100 µM): 0.0%

Susceptibility to hydrolysis (%) (human cN-IIIB [1]; [4]) | IC50 (human cN-IIIB [2]) [µM] | SMILES | also measured
57.8 |  | C[n+]1cn([C@@H]2O[C@H](COP(=O)([O-])O)[C@@H](O)[C@H]2N)c2nc(N)[nH]c(=O)c21 [Compound S27] | 
0.0 |  | CO[C@@H]1[C@H](O)[C@@H](COP(=O)(O)O)O[C@H]1n1cnc2c(=O)[nH]c(N)nc21 [Compound S25] | 
0.0 |  | C#CCNP(=O)(O)OP(=O)([O-])OC[C@H]1O[C@@H](n2c[n+](C)c3c(=O)[nH]c(N)nc32)[C@H](O)[C@@H]1O [Compound S5] | 
0.0 |  | C#CP(=O)(O)OP(=O)([O-])OC[C@H]1O[C@@H](n2c[n+](C)c3c(=O)[nH]c(N)nc32)[C@H](O)[C@@H]1O [Compound S10] | 
0.0 |  | C[n+]1cn([C@@H]2O[C@H](COP(=O)([O-])NCCN=[N+]=[N-])[C@@H](O)[C@H]2O)c2nc(N)[nH]c(=O)c21 [Compound S6] | 
0.0 |  | C#CCOP(=O)(O)OP(=O)([O-])OC[C@H]1O[C@@H](n2c[n+](C)c3c(=O)[nH]c(N)nc32)[C@H](O)[C@@H]1O [Compound S11] | 
0.0 |  | C#CCP(=O)(O)OP(=O)([O-])OC[C@H]1O[C@@H](n2c[n+](C)c3c(=O)[nH]c(N)nc32)[C@H](O)[C@@H]1O [Compound S9] | 
20.0 |  | C[n+]1cn([C@@H]2O[C@H](COP(=O)(O)O)[C@@H](OC(=O)NCCC(=O)[O-])[C@H]2O)c2nc(N)[nH]c(=O)c21 [Compound S31] | 
97.8 |  | Cn1c[n+]([C@@H]2O[C@H](COP(=O)(O)OP(=O)([O-])O)[C@@H](O)[C@H]2O)c2nc(N)[nH]c(=O)c21 [m7GDP, reference compound] | 
0.0 |  | C[n+]1cn([C@@H]2O[C@H](COP(N)(=O)[S-])[C@@H](O)[C@H]2O)c2nc(N)[nH]c(=O)c21 (stereo partly drawn) [Compound S12] | 
 | 7.3 ± 0.9 | Nc1nc2c(c(=O)[nH]1)[n+](Cc1ccc(C(F)(F)F)cc1)cn2[C@@H]1O[C@H](COP(=O)([O-])O)[C@@H](O)[C@H]1O [Compound 5g, 7-(4-Trifluoromethylbenzyl)guanosine 5’-Monophosphate] | Susceptibility to hydrolysis (%) (human cN-IIIB [1]; library II, compound 100 µM): 0.0%
0.0 |  | Cn1c[n+]([C@@H]2O[C@H](COP(=O)(O)OP(=O)([O-])OP(=O)(O)OC[C@H]3O[C@@H](n4cnc5c(=O)[nH]c(N)nc54)[C@H](O)[C@@H]3O)[C@@H](O)[C@H]2O)c2nc(N)[nH]c(=O)c21 [m7GpppG, reference compound] | 
100.0 |  | C[n+]1cn([C@@H]2O[C@H](COP(=O)([O-])O)[C@@H](O)[C@H]2O)c2nc(N)[nH]c(=O)c21 [m7GMP, 7-mehtylguanosine monophosphate, reference compound] | 
0.0 |  | C[n+]1cn([C@@H]2O[C@H](COP(=O)([O-])O)[C@@H](O)[C@H]2NC(=O)CCCC[C@@H]2SC[C@@H]3NC(=O)N[C@@H]32)c2nc(N)[nH]c(=O)c21 [Compound S32] | 
 | 35 ± 15 | C[n+]1cn([C@@H]2O[C@H](Cn3nncc3P(=O)([O-])O)[C@@H](O)[C@H]2O)c2nc(N)[nH]c(=O)c21 [Compound 4a, 7-Methylguanosine-triazol-p (1,5 Isomer)] | Potency towards cN-IIIB relative to compound 4 (human cN-IIIB [2]; comparison of IC50 values): approximately three-fold more efficiently; Susceptibility to hydrolysis (%) (human cN-IIIB [1]; library II, compound 100 µM): 0.0%
33.3 |  | C[n+]1cn([C@@H]2O[C@H](COP(=O)([O-])O)[C@H]3OC(C)(C)O[C@H]32)c2nc(N)[nH]c(=O)c21 [Compound S28] | 
 | > 500 | Nc1nc2c(c(=O)[nH]1)[n+](Cc1ccccc1)cn2[C@@H]1O[C@H](CO[PH](=O)[O-])[C@@H](O)[C@H]1O [Compound 8c, 7-benzylguanosine 5’-H-phosphonate] | Susceptibility to hydrolysis (%) (human cN-IIIB [1]; library II, compound 100 µM): 0.0%
0.0 |  | C#CCCP(=O)(O)OP(=O)([O-])OC[C@H]1O[C@@H](n2c[n+](C)c3c(=O)[nH]c(N)nc32)[C@H](O)[C@@H]1O [Compound S8] | 
0.0 | 10 ± 1 | Nc1nc2c(c(=O)[nH]1)[n+](Cc1ccccc1)cn2[C@@H]1O[C@H](COP(=O)([O-])O)[C@@H](O)[C@H]1O [Compound 5] | 
0.0 |  | C[n+]1cn([C@@H]2O[C@H](CO)[C@@H](O)[C@H]2O)c2nc(N)[nH]c(=O)c21 [m7Guo, 7-methylguanosine, reference compound] | 
